Screen size: about 110,000 compounds; about 40 (0.04%) were called active. Inconclusive results, whose numbers are uncertain, are shown with a selection of clear calls. Calls come from the whole dose curve; as a rule, active = well fitted curve in the direction sought with a large enough effect in the signal ratio (not every such curve was filed as active); inconclusive = small, poorly fitted or top-dose-only effect, or a change in a side signal; inactive = flat fitted curve, though single readings scatter; the % refers to the signal ratio. Potencies of inconclusive entries are doubtful fits and often do not repeat.
experiment: IkB Signaling; conditions: ABC-DLBCL IkBa-CBG/CBR dual luciferase ratio (green luciferase fused to IkBa over red control in OCI-Ly3 lymphoma cells), 4 h; IkBa stabilization activation: at 57.1 µM (top of the series), scaled: untreated 0%, proteasome inhibitor 100% unless noted;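 for IkBa stabilization activation: 0% = basal untreated cells and 100% = reference inhibitor full response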
Method in brief: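 In this assay, an IκBα–CBG68 fusion accumulates when IKK-driven degradation is blocked; native CBR normalizes for cell number. OCI-Ly3 cells were treated 4 h with compound and doxycycline, then green and red light read after Chroma-Glo addition.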
Potency is the fitted concentration of half-maximal effect.

SMILES | IkBa stabilization activation | Potency
COc1ccc(/C=C/C(=O)Nc2ccc(Cl)c(Cl)c2)cc1OC | inactive: -7.9% | 
O=C(Cn1nc(C(F)(F)F)c2c1CCCC2)Nc1ccc(F)c(Cl)c1 |  | inconclusive: 31.6 µM [rising, single point]
COc1ccc2nc(SCC(=O)N3CCCCCC3)c(C#N)cc2c1 | inactive: 2.56% | 
COc1ccc(OC)c(NC(=O)c2ccc(-c3nc(COc4ccccc4)c(C)o3)cc2)c1 | inactive: 1.51% | 
Cc1cccc(N(C)C(=O)C2CCN(S(=O)(=O)c3cccc4nonc34)CC2)c1 | inconclusive: 1.89% [signal inhibitor] | 
Cc1c(NC(=O)c2cc3ccccc3o2)cccc1-c1nc2ccccc2o1 |  | inconclusive: 20 µM [signal inhibitor]
COc1ccc(OC)c(NC(=O)Cn2cc(C(=O)c3cccs3)c3ccccc32)c1 | inconclusive: 13% [signal inhibitor] | 
COc1ccc2c3c(cccc13)NN=C2C | inactive: -0.251% | 
COc1ccc(CNC(=O)Cc2coc3ccc(C(C)C)cc23)cc1 | inconclusive: 0.973% [signal inhibitor] | 
CCOc1ccccc1CNC(=O)CSc1n[nH]c(-c2ccccc2Cl)n1 | inconclusive: -0.968% [signal inhibitor] | 
Cn1ccnc1Sc1nc2ccccc2nc1NS(=O)(=O)c1ccccc1 | inconclusive: 14.4% [signal inhibitor] | 
CCOC(=O)c1ccc(Nc2nc(C(=O)OCC)nc3ccccc23)cc1 | inconclusive: -1.72% [signal inhibitor] | 
Cc1cc(Nc2cc(Cl)ccc2C)n2nc(Cc3ccccc3)nc2n1 | inconclusive: 0.898% [signal inhibitor] | 
CCCOc1ccccc1C1CC(=O)Nc2cc3c(cc21)OCCO3 (centres undefined) | inconclusive: 10.2% [signal inhibitor] | 
CCCNC(=O)c1c(N)n(-c2cccc(OC)c2)c2nc3ccccc3nc12 | inconclusive: -5.45% [signal inhibitor] | 
Cc1cc(OCCn2cc(C(=O)c3ccco3)c3ccccc32)ccc1Cl |  | inconclusive: 1 µM [signal inhibitor, full curve]
COc1ccccc1NC(=O)CSc1oc(-c2ccco2)nc1S(=O)(=O)c1ccc(Br)cc1 | inconclusive: 13.5% [signal inhibitor] | 
COc1ccc(-c2nnc(SCC(=O)Oc3cccc(C)c3C)o2)cc1 | inconclusive: 0.699% [signal inhibitor] | 
Cc1cccc(NC(=O)C2CCCN(c3nnc(-n4c(C)ccc4C)s3)C2)c1C (centres undefined) | inconclusive: 6.12% [signal inhibitor] | 
O=C(NCc1noc2ccccc12)Nc1ccc(F)cc1F | inconclusive: 3.33% [signal inhibitor] | 
COc1ccccc1-n1c(CNC(=O)c2ccc(S(=O)(=O)N3CCOCC3)cc2)n[nH]c1=S |  | inconclusive: 0.631 µM [signal inhibitor, full curve]
O=C(COc1ccc(F)cc1)Nc1nccs1 | inactive: 20.4% | 

SMILES | IkBa stabilization activation | Potency
COc1ccc2cc(CN(C(=O)Nc3ccccc3)C3CCCC3)c(=O)[nH]c2c1 | inconclusive: 0.549% [signal inhibitor] | 
COc1ccc(C)cc1NC(=O)CN1C(=O)COc2ccc(S(=O)(=O)N3CCCCCC3)cc21 | inconclusive: 0.326% [signal inhibitor] | 
CC1(C)S[C@@H]2[C@H](NC(=O)[C@@H](N)c3ccc(O)cc3)C(=O)N2[C@H]1C(=O)O | inactive: 3.21% [at 25.6 µM, scaled: untreated 0%, proteasome inhibitor 100%] | 
CCOC(=O)C1CCCN(C(=O)c2ccc3c(c2)N(Cc2cccc(Cl)c2)C(=O)c2ccccc2S3(=O)=O)C1 (centres undefined) | inactive: 0.482% | 
CCCN(C(=O)Cn1c(=O)oc2cc(Cl)ccc21)c1ccc(C(C)C)cc1 | inconclusive: 2.61% [signal inhibitor] | 
CC[C@H](NC(C)C)[C@H](O)c1ccc(O)c(O)c1 | inactive | 
CCCCNC(=O)COC(=O)c1cc2c(C)nn(-c3ccccc3)c2s1 | inactive: 5.65% | 
CCc1ccc(S(=O)(=O)c2cn(C)c3cc(OC)c(OC)cc3c2=O)cc1 | inconclusive: 0.928% [signal inhibitor] | 
COc1ccccc1N1CCN(S(=O)(=O)c2cc(-c3cc(C)no3)ccc2C)CC1 | inconclusive: 0.751% [signal inhibitor] | 
CCc1ccc2oc(C(=O)NCCc3ccc(OC)c(OC)c3)cc(=O)c2c1 | inconclusive: 1.81% [signal inhibitor] | 
COc1ccc2c(=O)c3c(=O)n(Cc4ccco4)c(C(C)C)nc3oc2c1 | inactive: -1.92% | 
COc1cccc(CN2C(=O)C3(SCC(=O)N3c3cc(C)cc(C)c3)c3ccccc32)c1 (centres undefined) | inconclusive: 4.98% [signal inhibitor] | 
Cc1ccc(C(C)C)c(OCC(=O)Nc2nc3c(s2)CCCC3)c1 | inconclusive: -0.169% [signal inhibitor] | 
CCCC[C@]1(C2CCCC2)Cc2cc(OCC(=O)O)c(Cl)c(Cl)c2C1=O | inactive: 3.4% | 
COc1ccc(S(=O)(=O)Nc2cc(-c3cn4cccc(C)c4n3)ccc2C)cc1C | inconclusive: -1.63% [signal inhibitor] | 
Cc1ccc2nc(-c3c[nH]c4ccccc34)c(Nc3ccccc3)n2c1 |  | inconclusive: 0.0398 µM [signal inhibitor, full curve, poor fit]
Cc1ccc(C2(c3ccc(C)cc3)NC(=O)N(Cc3c(C)noc3C)C2=O)cc1 | inconclusive: 2.81% [signal inhibitor] | 
Cc1cc(O)c(C(C)(C)C)cc1Sc1cc(C(C)(C)C)c(O)cc1C | inconclusive: -3.54% [signal inhibitor] | 
COc1ccccc1Oc1nc2c(C)cccn2c(=O)c1/C=C(\C#N)c1nc2ccccc2[nH]1 | inconclusive: 1.28% [signal inhibitor] | 
Cc1nn(CC(=O)NCc2cccc(F)c2)c(=O)c2c(C)n(-c3ccc(Cl)cc3)nc12 | inconclusive: -0.167% [signal inhibitor] | 
CS(=O)(=O)c1ccc2nc(NC(=O)c3ccco3)sc2c1 |  | inconclusive: 25.1 µM [signal inhibitor, partial curve]
COc1ccc2nc(N(Cc3cccnc3)C(=O)c3ccco3)sc2c1 | inconclusive: 1.03% [signal inhibitor] | 

Source: PubChem BioAssay AID445 (National Center for Advancing Translational Sciences (NCATS), 2006)
